Our source for the inhibition values is ChEMBL document CHEMBL5606458, “ASAP - ZIKV NS2B-NS3 protease fluorescence single point” (2024).

The whole screen tested about 2,700 compounds, of which about 160 (5.9%) showed an effect of 50% or more. The list shows a part of the results.

The experiment has as its target Nonstructural protein 3 (Zika virus) (UniProt A0A024AXB9).
Setting [1] is: PRVABC59, Concentration 15.0 uM, Number of replicates 1.0.
The mark [2] stands for this setting: PRVABC59, Concentration 50.0 uM, Number of replicates 1.0.

UniProt A0A024AXB9, sequence (A0A024AXB9 as listed by the source): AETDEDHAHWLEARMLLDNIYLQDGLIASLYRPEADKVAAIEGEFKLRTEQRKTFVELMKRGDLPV

Take `CN(C)c1ccccc1CNC(=O)c1cc(Cl)ccc1NS(=O)(=O)c1ccc(Oc2ccccc2Cl)cc1`: the inhibition under setting [1] was 24.1%.
The same measure, in the same setting: the same measure for `O=C(c1cc(Cl)ccc1NS(=O)(=O)c1ccc(Oc2ccccc2Cl)cc1)N1CCc2ccc([N+](=O)[O-])cc2C1`: 16.9%.
Regarding `N#Cc1cnn(-c2ccc([N+](=O)[O-])cc2)c1NC(=O)C1CCN(c2ccc(C=O)cc2)CC1`, the inhibition under setting [2] was 32.6%.
Consider `O=Cc1ccc(N2CCC(C(=O)N3CCC(c4nc5ccccc5s4)CC3)CC2)cc1`, for which, under setting [2], the inhibition was 23.8%.
Turning to `Cc1ccc(C[C@H]2CCCN(C(=O)c3cc(Cl)ccc3NS(=O)(=O)c3ccc(Oc4ccccc4Cl)cc3)C2)cc1`, the inhibition under setting [1] is 5.03%.
Same read-out and setting: under `O=C(c1cc(Cl)ccc1NS(=O)(=O)c1ccc(Oc2ccccc2Cl)cc1)N1C[C@@H]2C[C@H](C1)c1cccc(=O)n1C2` stands -1.26%.
Regarding `Cc1nc2ccc(-c3ccccc3C(=O)Nc3cnn(C)c3)cn2n1`, the inhibition is -2.95% (PRVABC59, Concentration 49.5 uM, Number of replicates 2.0, Standard deviation 0.30374829112055624 %); -0.369% (PRVABC59, Concentration 99.01 uM, Number of replicates 2.0, Standard deviation 1.6059154261049553 %); 1.14% (PRVABC59, Concentration 198.0 uM, Number of replicates 2.0, Standard deviation 1.9491645233666188 %).
With `CN(C)CCCN(CCCN(C)C)C(=O)c1cc(Cl)ccc1NS(=O)(=O)c1ccc(Oc2ccccc2Cl)cc1`, the inhibition under setting [1] was 1.26%.
Still for that read-out and setting: under `O=C(Nc1ccc2c(c1)OC(F)(F)O2)c1cc(Cl)ccc1NS(=O)(=O)c1ccc(Oc2ccccc2Cl)cc1` stands 50%.
Turning to `O=Cc1ccc(N2CCC(C(=O)NC34C[C@@H]5C[C@@H](CC(O)(C5)C3)C4)CC2)cc1`, under setting [2], the inhibition came to 26.3%.
Regarding `COc1ccc(C(=O)C2CCN(C(=O)c3cc(Cl)ccc3NS(=O)(=O)c3ccc(Oc4ccccc4Cl)cc3)CC2)cc1`, under setting [1], the inhibition is 7.47%.
On the same count and under the same terms, the same measure for `CC(C)(CC(=O)N1CCCC1)NC(=O)c1cc(Cl)ccc1NS(=O)(=O)c1ccc(Oc2ccccc2Cl)cc1`: 23.9%.
In the case of `O=Cc1ccc(N2CCC(C(=O)Nc3nc4cc(Cl)ccc4s3)CC2)cc1`, the inhibition under setting [2] came to 22.7%.
As for `COc1ccc(F)c(-c2nn(C)cc2NC(=O)c2ccccc2C(F)(F)F)c1`, the inhibition reads like this: (PRVABC59, Concentration 49.5 uM, Number of replicates 2.0, Standard deviation 3.6790310281766874 %) -0.787%; (PRVABC59, Concentration 99.01 uM, Number of replicates 2.0, Standard deviation 0.02996615641015459 %) -1.95%; (PRVABC59, Concentration 198.0 uM, Number of replicates 2.0, Standard deviation 1.5500693766883227 %) -0.514%.
Regarding `O=Cc1ccc(N2CCC(C(=O)Nc3ccc4c(c3)OCCO4)CC2)cc1`, under setting [2], the inhibition was found to be 3.49%.
Regarding `Cc1cc(CO)c2cccc(NC(=O)c3nc(-c4ccccc4)oc3C(F)(F)F)c2n1`, the inhibition worked out at 15.3% (PRVABC59, Concentration 49.95 uM, Number of replicates 2.0, Standard deviation 2.699761899961709 %) and 24.8% (PRVABC59, Concentration 99.9 uM, Number of replicates 2.0, Standard deviation 2.5993991268892636 %).
In the case of `O=C(Nc1ccc2scnc2c1)c1cc(Cl)ccc1NS(=O)(=O)c1ccc(Oc2ccccc2Cl)cc1`, under setting [1], the inhibition amounted to 71.2%.
With `COc1cc(CNC(=O)C2CCN(c3ccc(C=O)cc3)CC2)cc(OC)c1`, the inhibition (PRVABC59, Concentration 10.0 uM, Number of replicates 1.0) came to 22.4%.
Take `CC(C)(CO)NC(=O)c1cc(Cl)cc(NS(=O)(=O)c2ccccc2)c1`: the inhibition reads like this: (PRVABC59, Concentration 49.5 uM, Number of replicates 2.0, Standard deviation 1.5800354488047803 %) -3.93%; (PRVABC59, Concentration 99.01 uM, Number of replicates 2.0, Standard deviation 1.0610755711187447 %) -1.75%; (PRVABC59, Concentration 198.0 uM, Number of replicates 2.0, Standard deviation 2.27062003317233 %) -1.04%.
Regarding `CCCN(C(=O)C1CCN(c2ccc(C=O)cc2)CC1)[C@@H](C)c1ccccc1`, the inhibition under setting [2] was found to be 28.1%.
On the same count and under the same terms, the same measure for `O=Cc1ccc(N2CCC(C(=O)Nc3cnn(-c4ccccc4)c(=O)c3Cl)CC2)cc1`: 23.2%.
As to `CC(C)COc1ccc(CNC(=O)c2cc(Cl)ccc2NS(=O)(=O)c2ccc(Oc3ccccc3Cl)cc2)cc1`, the inhibition under setting [1] was 12.2%.
With `Cc1cnccc1NC(=O)c1cc(C2CCCC2)n(C)c1C`, the inhibition reads like this: (PRVABC59, Concentration 49.5 uM, Number of replicates 2.0, Standard deviation 2.3333933807570615 %) -1.32%; (PRVABC59, Concentration 99.01 uM, Number of replicates 2.0, Standard deviation 1.0190135220670546 %) 2.25%; (PRVABC59, Concentration 198.0 uM, Number of replicates 2.0, Standard deviation 1.094495661764367 %) 8.21%.
Regarding `CCN(C(=O)c1cc(C)cc2cn[nH]c12)[C@H]1CCN(C(=O)c2nc(N)ccc2C)C1`, where the note is “PRVABC59, Concentration 49.5 uM, Number of replicates 2.0, Standard deviation 1.4042129581584302 %”, the inhibition was -8.39%.
Take `CC(=O)N[C@@H](CCCCN)C(=O)Nc1cccc2c(CO)cc(C)nc12`: the inhibition (PRVABC59, Concentration 49.95 uM, Number of replicates 2.0, Standard deviation 2.062511665720634 %) amounted to 70.2% and the inhibition (PRVABC59, Concentration 99.9 uM, Number of replicates 2.0, Standard deviation 0.26572610179233236 %) turned out to be 93.5%.
Turning to `CN(C)C1(CNC(=O)C2CCN(c3ccc(C=O)cc3)CC2)CCOCC1`, the inhibition under setting [2] was 20%.
`Cc1nc([C@H]2CCCNC2)[nH]c1C(=O)Nc1cc(-c2cccnc2)n[nH]1`: the inhibition by setting is: (PRVABC59, Concentration 49.5 uM, Number of replicates 2.0, Standard deviation 1.073120297486188 %) 1.96%; (PRVABC59, Concentration 99.01 uM, Number of replicates 2.0, Standard deviation 1.2142159765956841 %) 7.26%; (PRVABC59, Concentration 198.0 uM, Number of replicates 2.0, Standard deviation 1.840202887040708 %) 14.6%.
As to `NCc1cccc(NC(=O)[C@H]2CN(C(=O)OCc3ccccc3)CC23CCOCC3)c1`, the inhibition by setting is: (PRVABC59, Concentration 49.5 uM, Number of replicates 2.0, Standard deviation 2.1231725289643024 %) 1.7%; (PRVABC59, Concentration 99.01 uM, Number of replicates 2.0, Standard deviation 0.8161413526338066 %) 5.13%; (PRVABC59, Concentration 198.0 uM, Number of replicates 2.0, Standard deviation 1.1474165934537979 %) 10.8%.
Consider `CNC(=O)c1ccccc1NC(=O)c1cc(Cl)ccc1NS(=O)(=O)c1ccc(Oc2ccccc2Cl)cc1`, for which, under setting [1], the inhibition came to 12.1%.
Same read-out and setting: under `O=C(CNC(=O)c1cc(Cl)ccc1NS(=O)(=O)c1ccc(Oc2ccccc2Cl)cc1)NCc1ccccc1` stands 33.2%.
Turning to `CC(=O)N[C@@H](CCCN)C(=O)Nc1cccc2cccnc12`, the inhibition (PRVABC59, Concentration 49.95 uM, Number of replicates 2.0, Standard deviation 1.6196420224622259 %) is 19.2% and the inhibition (PRVABC59, Concentration 99.9 uM, Number of replicates 2.0, Standard deviation 2.0688397621434533 %) is 38.7%.
Turning to `CNS(=O)(=O)c1ccc(CNCc2ccc(N3CCN(C)CC3)cc2)cc1`, the inhibition (PRVABC59, Concentration 49.5 uM, Number of replicates 2.0, Standard deviation 1.6932523363234724 %) was -6.47%; the inhibition (PRVABC59, Concentration 99.01 uM, Number of replicates 2.0, Standard deviation 2.0489123949927146 %) was -5.52%; the inhibition (PRVABC59, Concentration 198.0 uM, Number of replicates 2.0, Standard deviation 0.780906250103911 %) is -3.86%.
With `Cc1cc(CO)c2cccc(Cc3ccccc3C(=O)Nc3cc(C)on3)c2n1`, the inhibition reads like this: (PRVABC59, Concentration 49.95 uM, Number of replicates 2.0, Standard deviation 0.7445712834152752 %) -2.77%; (PRVABC59, Concentration 99.9 uM, Number of replicates 2.0, Standard deviation 1.0119877161772735 %) 0.512%.
Regarding `O=Cc1ccc(N2CCC(C(=O)N3CCN(CCc4ccncc4)CC3)CC2)cc1`, the inhibition under setting [2] was determined as 23.8%.
For `Cc1cc(CO)c2cccc(Cc3ccccc3NC(=O)Cc3c(C)c4c(=O)[nH]n(C)c4[nH]c3=O)c2n1`, the inhibition is, setting by setting: (PRVABC59, Concentration 49.95 uM, Number of replicates 2.0, Standard deviation 2.3870518401485845 %) 19.5%; (PRVABC59, Concentration 99.9 uM, Number of replicates 2.0, Standard deviation 1.6185118125725577 %) 39.4%.
Turning to `O=C(Nc1ccn(C2CCC2)n1)c1ccn([C@H]2CCCNC2)n1`, the inhibition (PRVABC59, Concentration 49.5 uM, Number of replicates 2.0, Standard deviation 2.999141248765626 %) is -2.8%; the inhibition (PRVABC59, Concentration 99.01 uM, Number of replicates 2.0, Standard deviation 3.4363455969408965 %) is -1.8%; the inhibition (PRVABC59, Concentration 198.0 uM, Number of replicates 2.0, Standard deviation 3.522152218310256 %) was -2.36%.
As to `O=C(NC1(c2ccc(Cl)cc2)CC1)c1cc(Cl)ccc1NS(=O)(=O)c1ccc(Oc2ccccc2Cl)cc1`, under setting [1], the inhibition came out at 28.6%.
Take `CNC(=O)c1cc(Cl)ccc1NS(=O)(=O)c1ccc(NS(C)(=O)=O)cc1`: the inhibition was found to be 1.65% (PRVABC59, Concentration 49.5 uM, Number of replicates 2.0, Standard deviation 1.6580072028436312 %); 3.81% (PRVABC59, Concentration 99.01 uM, Number of replicates 2.0, Standard deviation 2.2961683990684207 %); 8.28% (PRVABC59, Concentration 198.0 uM, Number of replicates 2.0, Standard deviation 2.5082156002477025 %).

The term inhibition denotes the drop in the measured response relative to a control, in per cent.
